In PubChem BioAssay AID686970 (National Center for Advancing Translational Sciences (NCATS), 2013):
Hit rate of the full screen: of about 360,000 compounds, about 6,000 (1.7%) were called active. Inconclusive means that the source gave no clear call. Such entries were picked first, then a sample of the others. The call rests on the fitted dose curve; in most records, active means well fitted cell-killing curve with a large enough effect; inconclusive means small, poorly fitted or top-dose-only effect, or effect the other way; inactive means flat fitted curve, though single readings scatter. Potencies of inconclusive entries are left out as doubtful fits.

Assay: qHTS for induction of synthetic lethality in tumor cells producing 2HG: qHTS for the HT-1080-NT fibrosarcoma cell line;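 further: NT is the 2HG producing partner of a matched IDH1 knockdown line; nearly all actives have a fitted effect of over 55% in size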;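 on activity, negative = less viability: 0% = DMSO-treated cells and -100% = media-only wells without cells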
Settings: HT-1080-NT fibrosarcoma viability, CellTiter-Glo ATP luminescence, 48 h; activity, negative = less viability: at 46.1 µM (top of the series) unless noted
Procedure, shortened: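 750 cells/well, RPMI + 5% FBS; 2 h settle, compound pin-transfer, 48 h at 37 degrees C. CellTiter-Glo 10 min RT, luminescence. Normalized to DMSO and media-only wells.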
Potency means the concentration at half of the fitted maximal effect; tags describe the fitted curve by direction and shape.

Compound | Potency | activity, negative = less viability
Cc1ccc(C(=O)C[n+]2cc(Br)cc(Br)c2)cc1 | inconclusive [rising, single point] | 
COc1ccc(Cl)cc1NC(=O)CN(C)CC(=O)Nc1ccccc1N1CCOCC1 | active: 1.46 µM | 
CCOc1cc2[nH]c(=O)n(CCC(=O)NCCc3ccc(OC)c(OC)c3)c(=O)c2cc1OCC | active: 29.1 µM | 
COc1ccc(CCNC(=S)Nc2ccc(C)cc2C)cc1 |  | inactive: 1.18%
CCCCN1C(=O)C(=O)N(CC(=O)Nc2cc(OCC)c(N3CCOCC3)cc2OCC)C1=O |  | inactive: 6.67%
COc1ccc(-c2nc3cc(C)c(Br)c(C)n3c2CC2CCCCC2)cc1OC | inconclusive [cytotoxic, partial curve] | 
O=C1Nc2c(Cl)cccc2C1=O | inconclusive [cytotoxic, single point] | 
Cc1ccc(NC(=O)CN(C)C(=O)COc2ccccc2-c2ccccc2)cc1 | inconclusive [cytotoxic, partial curve] | 
O=C(O)c1ccc2c(=O)n3c(nc2c1)/C(=C/c1ccc(Cl)cc1Cl)CC3 | inconclusive [cytotoxic, single point] | 
Oc1ccc(Br)cc1-c1n[nH]c(=S)n1Cc1ccccc1 |  | inactive: -1.48%
O=C(CSC1=NNC(c2ccccn2)S1)Nc1ccccc1 (stereo unspecified) | inconclusive [cytotoxic, partial curve] | 
CCc1cc(=O)oc2c3c(cc(OCC(=O)N[C@H](C(=O)O)[C@H](C)CC)c12)OC(C)(C)CC3 |  | inactive: 6.12%
COc1cccc(NC(=O)c2ccc(NCCCN3CC(C)CC(C)C3)c([N+](=O)[O-])c2)c1 (stereo unspecified) | inconclusive [cytotoxic, single point] | 
O=C(CSc1nc2ccc([N+](=O)[O-])cc2[nH]1)NC1CCCCCC1 | inconclusive [cytotoxic, partial curve] | 
O=C(Nc1cccc(NC(=O)c2cccs2)c1)c1cccnc1 |  | inactive: -3.13%
COc1ccc(-c2nc3ccc(Br)cn3c2Cc2cccc(Cl)c2)cc1OC | inconclusive [cytotoxic, single point] | 
O=C(CN(C(=O)c1ccc(Cl)cc1)C1CCCCC1)Nc1ccc(Cl)c([N+](=O)[O-])c1 | inconclusive [cytotoxic, partial curve] | 
CCOC(=O)C1(Cc2cccc(OC)c2)CCN(Cc2ccccc2OC)CC1 | inconclusive [cytotoxic, single point] | 
CCCCC(=O)NC(c1ccc(Cl)cc1)c1ccc2cccnc2c1O (stereo unspecified) | inconclusive [cytotoxic, partial curve, poor fit] | 
COc1ccc(-c2sc3cc(OC)ccc3c2-c2ccc(OCCN3CCCCC3)cc2)cc1 | active: 20.6 µM | 
CCCCCCCCN1C(=O)[C@H](CC(=O)NCc2ccc(C)o2)C[C@@]2(C(=O)OC)CC(C)(C)CC=C12 | inconclusive [cytotoxic, single point] | 
NC(=O)c1cc(-c2ccccc2)nc(N2CCCCCC2)n1 | inconclusive [cytotoxic, single point] | 
CN1C(=O)[C@H]2[C@@H](/C=C/c3ccccc3)N3C(=O)CN(Cc4ccccn4)C(=O)[C@@]3(C)[C@H]2C1=O |  | inactive: 12.6%

Compound | Potency | activity, negative = less viability
O=C(NCCc1c[nH]c2ccccc12)c1ccc([N+](=O)[O-])o1 | inconclusive [cytotoxic, single point] | 
CN(C)c1ccc(C=Cc2ccnc3ccccc23)cc1N | active: 23.1 µM | 
CCc1ccc(-c2nc(CS(=O)CC(=O)NCCN3CCCCCC3)c(C)o2)cc1 (stereo unspecified) | inconclusive [cytotoxic, single point] | 
OC(COCC(F)(F)C(F)(F)C(F)(F)C(F)F)Cn1c2ccccc2c2ccccc21 (stereo unspecified) | inconclusive [cytotoxic, single point] | 
O=C1C=CCC(/C=C/c2ccccc2)O1 (stereo unspecified) | inconclusive [cytotoxic, single point] | 
CC1CCCN(CCCOc2ccc(Br)cc2Cl)C1 (stereo unspecified) | active: 16.4 µM | 
CCCn1nc2cc(C(=O)NCc3ccc(C)cc3)ccc2c1OC |  | inactive: 28.8%
Cn1c(N=Nc2ccccc2)nc2ccccc21 | active: 8.2 µM | 
O=C(NCCc1ccccn1)c1cc(-c2cccc3ccccc23)nc2ccccc12 |  | inactive: -8.33%
Cc1ccc(C(=O)Nc2nc3ccccc3s2)s1 | inconclusive [cytotoxic, single point] | 
Nc1cccc2nsnc12 | inconclusive [cytotoxic, partial curve] | 
CCCCC(c1nnnn1CC1CCCO1)N1CCN(c2nc3ccccc3s2)CC1 (stereo unspecified) |  | inactive: -18.1%
CC(N)c1csc(Nc2ccc(C(=O)NCCO)cc2)n1 (stereo unspecified) | inconclusive [rising, single point] | 
Cc1cccc(N2CCN(C(=O)C3CCCN(S(=O)(=O)c4cnc[nH]4)C3)CC2C)c1 (stereo unspecified) |  | inactive: 4.78%
NC(=O)c1cccc(S(=O)(=O)N2CCCCC2)c1 |  | inactive: 6.2%
C=CCOc1ccc2nc(NC(=O)OC)[nH]c2c1 | inconclusive [cytotoxic, full curve] | 
COc1cc(/C=C2\SC(=N)N(c3ccc(F)cc3)C2=O)ccc1O | inconclusive [cytotoxic, single point] | 
COc1ccc(C(c2nnnn2C2CCCC2)N2CCN(C/C=C/c3ccccc3)CC2)cc1 (stereo unspecified) | inconclusive [cytotoxic, single point] | 
COCCc1ncc(CN2CCCC(C(=O)Nc3cccc(-c4cccc(C)c4)c3)C2)cn1 (stereo unspecified) | inconclusive [cytotoxic, single point] | 
N=c1c2c(ncn1Cc1ccco1)Oc1ccc3ccccc3c1C2c1ccccc1 (stereo unspecified) | active: 16.4 µM | 
O=S(=O)(CCSc1ccc(C(F)(F)F)cn1)c1ccc(Cl)cc1 |  | inactive: -0.0846%
COc1cccc(-c2cnc(C(O)c3cc(Cl)cc(Cl)c3)[nH]2)c1 (stereo unspecified) | inconclusive [cytotoxic, single point] | 
COc1ccc(-c2[nH]ncc2CN2CCC(O)(c3ccc(Cl)cc3)CC2)cc1 | inconclusive [cytotoxic, partial curve] | 
